# Test results published in PubChem BioAssay (EPA / NIEHS).
# For part of these data: Shown are results outside the selection of hits, which stands elsewhere. Inconclusive results are not listed. The list shows a part of the results, in another mix than the full data. The source made the active and inactive calls. Rule for the calls, unless noted: active = hit-call score of the fitted dose curve at least 0.9, where 1 is the maximum; inconclusive = response in the unintended direction; inactive = score below 0.9.
# Legend:
# [1] = molecular target: human Retinoid X Receptor beta (RXRb), RXRB (gene 6257) (UniProt P28702); test: ATG_RXRb_TRANS: Attagene TRANS-FACTORIAL HepG2 Assay for human Retinoid X Receptor beta (RXRb) (AID 2283013)
# Sequence of UniProt P28702 (P28702 whole entry, looked up, the tested form may be a part): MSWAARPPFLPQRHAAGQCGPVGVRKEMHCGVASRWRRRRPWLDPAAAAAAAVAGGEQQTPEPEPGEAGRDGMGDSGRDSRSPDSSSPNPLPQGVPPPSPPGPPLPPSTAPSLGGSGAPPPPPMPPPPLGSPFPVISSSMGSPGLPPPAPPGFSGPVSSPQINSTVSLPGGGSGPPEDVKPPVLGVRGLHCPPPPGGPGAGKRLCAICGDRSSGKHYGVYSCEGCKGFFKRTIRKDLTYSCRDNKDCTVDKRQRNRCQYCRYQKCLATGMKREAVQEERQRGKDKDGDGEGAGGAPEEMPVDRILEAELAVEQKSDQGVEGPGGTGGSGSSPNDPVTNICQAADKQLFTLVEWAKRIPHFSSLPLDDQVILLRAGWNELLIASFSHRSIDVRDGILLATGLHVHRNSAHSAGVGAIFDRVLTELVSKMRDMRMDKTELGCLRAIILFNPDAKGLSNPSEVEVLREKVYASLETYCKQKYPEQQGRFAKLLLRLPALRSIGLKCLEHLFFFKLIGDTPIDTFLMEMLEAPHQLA
# Procedure, shortened: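 Chimeric receptor-Gal4 activity was assessed in transiently transfected human HepG2 cells after 24 h exposure. Transcripts from GAL4-UAS reporters were quantified by fluorescent RT-PCR and capillary electrophoresis, with DMSO as negative control and baseline.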
# [2] = molecular target: human Vitamin D Receptor (VDR), VDR (gene 7421) (UniProt P11473); test: ATG_VDR_TRANS: Attagene TRANS-FACTORIAL HepG2 Assay for human Vitamin D Receptor (VDR) (AID 2283022)
# Sequence of UniProt P11473 (P11473 whole entry, looked up, the tested form may be a part): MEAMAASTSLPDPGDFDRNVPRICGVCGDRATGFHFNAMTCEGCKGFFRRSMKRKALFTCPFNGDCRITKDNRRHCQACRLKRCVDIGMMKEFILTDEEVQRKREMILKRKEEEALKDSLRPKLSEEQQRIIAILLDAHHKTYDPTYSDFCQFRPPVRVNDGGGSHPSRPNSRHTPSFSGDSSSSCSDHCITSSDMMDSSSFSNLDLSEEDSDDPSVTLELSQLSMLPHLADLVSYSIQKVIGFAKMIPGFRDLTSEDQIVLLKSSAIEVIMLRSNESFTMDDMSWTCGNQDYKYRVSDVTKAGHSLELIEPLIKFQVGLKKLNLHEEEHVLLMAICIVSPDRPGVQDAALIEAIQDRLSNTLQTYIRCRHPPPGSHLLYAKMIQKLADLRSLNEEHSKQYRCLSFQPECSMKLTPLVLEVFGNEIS
# Procedure, shortened: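 HepG2 cells were transiently transfected with GAL4-UAS reporter units and a chimeric VDR-Gal4 construct, then dosed for 24 hours. Reporter mRNA was quantified by RT-PCR, fluorescent labeling, HpaI digestion and capillary electrophoresis; gain of signal analysed vs DMSO.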
# [3] = ACEA_AR_agonist_AUC_viability: ACEA Biosciences xCELLigence Real-Time Cell Analysis on Androgen Receptor Agonism for Viability (AID 2283775)
# Procedure, shortened: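 22Rv1 cells; impedance growth kinetics; 8-pt 1:4 dilutions from 100 uM top final, ≤0.5% DMSO; n = 2; 80 h read; AUC viability, loss-of-signal vs DMSO.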
# [4] = read-out: Vascular endothelial growth factor receptor 2 (Homo sapiens) (UniProt P35968); test: BSK_4H_VEGFRII: BioMAP Diversity Plus: 4H Assay for Vascular endothelial growth factor receptor 2 (VEGFR2) Biomarker Activity (AID 2283031; active = hit-call score of the fitted dose curve at least 0.9, where 1 is the maximum; inactive = score below 0.9); details: actives raise or lower the signal; primary human endothelial cells (HUVEC)
# Procedure, shortened: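 Primary human umbilical vein endothelial cells (4H system), 24 h exposure; cell-surface VEGFR2 measured by ELISA. Bidirectional fitting versus DMSO; cytotoxicity checked in parallel by SRB total-protein staining.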
# [5] = read-out: Vascular cell adhesion molecule 1 (VCAM1), VCAM1 (gene 7412); test: BSK_4H_VCAM1: BioMAP Diversity Plus: 4H Assay for Vascular cell adhesion molecule 1 (VCAM1) Biomarker Activity (AID 2283033; active = hit-call score of the fitted dose curve at least 0.9, where 1 is the maximum; inactive = score below 0.9;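 note: cell-surface VCAM-1 protein measured by ELISA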); details: actives raise or lower the signal; primary human endothelial cells (HUVEC)
# Procedure, shortened: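 Chemicals are added to primary human umbilical vein endothelial cells. After 24 h, VCAM-1 levels are measured by ELISA. Values come from bidirectional fitting referenced to DMSO.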
# [6] = read-out: Interleukin-1 alpha (IL1a), IL1A (gene 3552); test: BSK_KF3CT_IL1a: BioMAP Diversity Plus: KF3CT Assay for Interleukin-1 alpha (IL1a) Biomarker Activity (AID 2283070; active = hit-call score of the fitted dose curve at least 0.9, where 1 is the maximum; inactive = score below 0.9); details: actives raise or lower the signal; primary human keratinocytes with fibroblasts
# Procedure, shortened: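 IL-1a was detected by ELISA 24 h after chemical treatment of a co-culture of human skin keratinocytes and foreskin fibroblasts. Gain or loss of signal was fitted against the DMSO baseline.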
# [7] = read-out: Transforming growth factor beta 1 (TGFb1), TGFB1 (gene 7040); test: BSK_KF3CT_TGFb1: BioMAP Diversity Plus: KF3CT Assay for Transforming growth factor beta 1 (TGFb1) Biomarker Activity (AID 2283072; active = hit-call score of the fitted dose curve at least 0.9, where 1 is the maximum; inactive = score below 0.9); details: actives raise or lower the signal; primary human keratinocytes with fibroblasts
# Procedure, shortened: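 KF3CT co-culture (keratinocytes + fibroblasts), 24 h exposure → TGF-b1 ELISA → bidirectional fit, DMSO = baseline. Parallel SRB total-protein staining (0.1% SRB, 10% TCA fixation, 560 nm) for cytotoxicity.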
# CD69, CD69 (gene 969) = test: BSK_SAg_CD69: BioMAP Diversity Plus: SAg Assay for CD69 Biomarker Activity (AID 2283089; active = hit-call score of the fitted dose curve at least 0.9, where 1 is the maximum; inactive = score below 0.9;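 note: cell surface CD69 protein quantified by ELISA with fluorescence detection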); details: actives raise or lower the signal; primary human HUVEC with PBMC
# Procedure, shortened: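 Primary human vascular co-culture (umbilical vein endothelium with peripheral blood mononuclear cells) exposed to test chemical for 24 h. CD69 levels quantified by fluorescence ELISA; DMSO served as negative control for bidirectional fitting.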
# [8] = molecular target: rat CYP2C11, Cyp2c11 (gene 29277) (UniProt P08683); test: NVS_ADME_rCYP2C11: NovaScreen (NVS) CYP450-related Enzyme Activity (ADME) Assay for rat CYP2C11 (AID 2283118)
# Sequence of UniProt P08683 (P08683 whole entry, looked up): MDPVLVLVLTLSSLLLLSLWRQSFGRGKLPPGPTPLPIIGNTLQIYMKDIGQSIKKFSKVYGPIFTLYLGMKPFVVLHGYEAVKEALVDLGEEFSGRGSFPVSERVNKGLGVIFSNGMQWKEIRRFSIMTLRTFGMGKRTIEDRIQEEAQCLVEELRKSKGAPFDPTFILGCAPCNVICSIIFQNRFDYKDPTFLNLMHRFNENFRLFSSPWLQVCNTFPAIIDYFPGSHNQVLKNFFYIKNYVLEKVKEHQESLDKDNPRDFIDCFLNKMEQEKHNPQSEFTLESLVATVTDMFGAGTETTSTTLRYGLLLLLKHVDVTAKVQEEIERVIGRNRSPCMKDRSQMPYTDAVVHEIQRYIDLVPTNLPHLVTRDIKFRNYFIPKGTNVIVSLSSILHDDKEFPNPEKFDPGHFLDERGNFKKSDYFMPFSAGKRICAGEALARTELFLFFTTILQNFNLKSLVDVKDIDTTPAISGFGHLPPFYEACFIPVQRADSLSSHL
# Method: NVS_ADME_rCYP2C11 is a biochemical, single-readout assay that uses extracted gene-proteins in a cell-free assay. Measurements were taken 0.33 hour after chemical dosing in a 96-well plate.NVS_ADME_rCYP2C11 is one of one assay component(s) measured or calculated from the NVS_ADME_rCYP2C11 assay. It is designed to make measurements of enzyme activity, a form of enzyme reporter, as detected with fluorescence intensity signals by Fluorescence technology.Data from the assay component NVS_ADME_rCYP2C11 was analyzed into 1 assay endpoint. This assay endpoint, NVS_ADME_rCYP2C11, was analyzed in the positive analysis fitting direction relative to Acetonitrile as the negative control and baseline of activity. Using a type of enzyme reporter, loss-of-signal activity can be used to understand changes in the enzymatic activity as they relate to the gene Cyp2c11. Furthermore, this assay endpoint can be referred to as a primary readout, because this assay has produced multiple assay endpoints where this one serves a enzymatic activity function. To generalize the intended target to other relatable targets, this assay endpoint is annotated to the cyp intended target family, where the subfamily is xenobiotic metabolism. […]
# [9] = TOX21_p53_BLA_p5_viability: Viability Assessment in the Tox21 HCT-116 p53 Agonism Beta-lactamase Assay, Phase 5 (AID 2283600)
# Procedure, shortened: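 Decreased CellTiter-Glo luminescence denotes lost viability. Exposure: 16 h at 37C, 5% CO2, with compounds from DMSO stocks diluted 217-fold in wells of 4000 cells.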
# [10] = molecular target: human Thyroid Receptor alpha (THRa1), THRA (gene 7067) (UniProt P10827); test: ATG_THRa1_TRANS: Attagene TRANS-FACTORIAL HepG2 Assay for human Thyroid Receptor alpha (THRa1) (AID 2283014)
# Sequence of UniProt P10827 (P10827 whole entry, looked up, the tested form may be a part): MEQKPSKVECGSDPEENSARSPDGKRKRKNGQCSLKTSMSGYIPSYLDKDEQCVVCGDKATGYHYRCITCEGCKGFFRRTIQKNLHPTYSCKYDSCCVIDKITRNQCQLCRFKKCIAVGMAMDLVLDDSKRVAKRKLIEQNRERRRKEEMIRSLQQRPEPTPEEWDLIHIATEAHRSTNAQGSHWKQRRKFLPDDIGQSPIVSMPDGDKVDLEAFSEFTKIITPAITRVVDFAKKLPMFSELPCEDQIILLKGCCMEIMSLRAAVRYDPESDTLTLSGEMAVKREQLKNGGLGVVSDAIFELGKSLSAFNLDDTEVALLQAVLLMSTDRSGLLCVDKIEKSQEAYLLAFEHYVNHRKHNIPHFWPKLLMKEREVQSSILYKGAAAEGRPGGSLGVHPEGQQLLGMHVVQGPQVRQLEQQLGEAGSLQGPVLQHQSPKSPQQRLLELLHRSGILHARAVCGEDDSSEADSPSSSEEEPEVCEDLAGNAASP
# Procedure, shortened: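 HepG2 cells transiently transfected with chimeric NR-Gal4 and GAL4-UAS reporter units, dosed 24 h. Reporter mRNA quantified by RT-PCR, fluorescent labeling, HpaI digestion and capillary electrophoresis; gain-of-signal fit versus DMSO.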
# [11] = read-out: Monokine induced gamma interferon (MIG), CXCL9 (gene 4283); test: BSK_3C_MIG: BioMAP Diversity Plus: 3C Assay for Monokine induced gamma interferon (MIG) Biomarker Activity (AID 2283021; active = hit-call score of the fitted dose curve at least 0.9, where 1 is the maximum; inactive = score below 0.9;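 note: MIG protein level measured by immunoassay in the treated endothelial cultures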); details: actives raise or lower the signal; primary human endothelial cells (HUVEC)
# Procedure, shortened: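 Endothelial primary cells (human umbilical vein) are dosed with test chemical in the 3C system. MIG levels are measured by ELISA at 24 h and fitted in both directions relative to DMSO.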
# [12] = read-out: Macrophage colony-stimulating factor (MCSF), CSF1 (gene 1435); test: BSK_CASM3C_MCSF: BioMAP Diversity Plus: CASM3C Assay for Macrophage colony-stimulating factor (MCSF) Biomarker Activity (AID 2283044; active = hit-call score of the fitted dose curve at least 0.9, where 1 is the maximum; inactive = score below 0.9;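 note: M-CSF protein amount quantified by ELISA after 24 h exposure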); details: actives raise or lower the signal; primary human coronary artery smooth muscle cells
# [13] = read-out: Monocyte Chemoattractant Protein-1 (MCP1), CCL2 (gene 6347); test: BSK_LPS_MCP1: BioMAP Diversity Plus: LPS Assay for Monocyte Chemoattractant Protein-1 (MCP1) Biomarker Activity (AID 2283081; active = hit-call score of the fitted dose curve at least 0.9, where 1 is the maximum; inactive = score below 0.9;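 note: secreted MCP-1 protein quantified by ELISA in culture supernatant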); details: actives raise or lower the signal; primary human HUVEC with PBMC
# Procedure, shortened: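 Human umbilical vein endothelial cells co-cultured with PBMC, LPS-stimulated; secreted MCP-1 measured by ELISA 24 h after compound addition. Bidirectional curve fitting against DMSO baseline; SRB total-protein staining in parallel cultures for cytotoxicity.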
# [14] = BSK_SAg_PBMCCytotoxicity: PBMC Cytotoxicity Assessment in the BioMAP Diversity Plus: SAg Assay (AID 2283093; active = hit-call score of the fitted dose curve at least 0.9, where 1 is the maximum; inactive = score below 0.9;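 note: PBMC superantigen activated with SEB plus TSST-1 one hour after compound addition; PBMC viability measured as Alamar Blue reduction fluorescence at 546/580 nm; fitted both ways against DMSO so a hit may be loss or gain of signal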); details: primary human HUVEC with PBMC
# Procedure, shortened: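 Alamar Blue reduction (6 h, ex/em 546/580 nm) read after 90 h culture of PBMC pre-dosed 1 h then stimulated with SEB plus TSST-1, 20 ng/mL each. Gain or loss of signal fitted relative to DMSO.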
# [15] = molecular target: Estrogen receptor (Homo sapiens) (UniProt P03372); test: OT_ER_ERaERa_1440: Odyssey Thera (OT) 24-hour HEK293T Protein-Complementation Assay for Estrogen Receptor-alpha/-alpha Homodimer (AID 2283349);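 note: hits raise fluorescence above DMSO for agonists and antagonists alike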
# Sequence of UniProt P03372 (P03372 whole entry, looked up, the tested form may be a part): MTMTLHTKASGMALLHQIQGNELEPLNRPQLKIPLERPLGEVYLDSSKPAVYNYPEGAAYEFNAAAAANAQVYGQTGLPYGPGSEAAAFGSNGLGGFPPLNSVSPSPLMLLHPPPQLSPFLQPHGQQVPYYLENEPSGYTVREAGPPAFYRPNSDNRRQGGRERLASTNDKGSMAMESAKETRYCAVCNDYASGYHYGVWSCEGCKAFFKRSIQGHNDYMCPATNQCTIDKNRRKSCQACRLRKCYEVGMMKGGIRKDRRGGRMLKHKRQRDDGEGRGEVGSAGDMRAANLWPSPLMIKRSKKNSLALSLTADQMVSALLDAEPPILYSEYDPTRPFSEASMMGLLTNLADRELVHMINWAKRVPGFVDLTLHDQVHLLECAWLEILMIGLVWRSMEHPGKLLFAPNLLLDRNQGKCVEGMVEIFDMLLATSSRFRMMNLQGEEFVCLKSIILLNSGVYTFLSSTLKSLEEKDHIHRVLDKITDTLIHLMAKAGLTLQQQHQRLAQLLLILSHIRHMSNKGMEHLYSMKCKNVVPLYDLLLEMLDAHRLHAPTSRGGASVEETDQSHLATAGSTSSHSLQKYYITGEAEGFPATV
# Procedure, shortened: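 HEK293T, stable ERα LBD (aa 310-547) homodimer PCA; 24 h compound exposure; mean fluorescence intensity (nuclear for agonists, nuclear plus cytoplasmic for antagonists) vs vehicle; positive fitting direction, DMSO baseline.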
# [16] = molecular target: Cellular tumor antigen p53 (Homo sapiens) (UniProt P04637); test: TOX21_p53_BLA_p5_ratio: Tox21 HCT-116 p53 Agonism Beta-lactamase Assay, Ratio, Phase 5 (AID 2283599)
# Sequence of UniProt P04637 (P04637 whole entry, looked up): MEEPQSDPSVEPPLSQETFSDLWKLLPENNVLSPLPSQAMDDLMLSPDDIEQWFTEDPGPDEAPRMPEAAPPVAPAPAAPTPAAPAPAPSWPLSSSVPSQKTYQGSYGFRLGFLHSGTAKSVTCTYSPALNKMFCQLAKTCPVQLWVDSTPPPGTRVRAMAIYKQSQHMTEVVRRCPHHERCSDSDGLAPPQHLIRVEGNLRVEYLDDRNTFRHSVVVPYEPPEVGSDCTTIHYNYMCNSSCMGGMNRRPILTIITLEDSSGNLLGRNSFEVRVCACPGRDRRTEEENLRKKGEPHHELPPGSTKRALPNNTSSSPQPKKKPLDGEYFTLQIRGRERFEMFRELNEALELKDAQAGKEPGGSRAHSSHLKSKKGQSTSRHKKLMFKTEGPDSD
# Procedure, shortened: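 Beta-lactamase reporter ratio (blue 460 nm over green 530 nm, 405 nm excitation) after 2 h CCF4-AM loading, in HCT-116 cells exposed 16 h at 37 C to compounds pinned at 217-fold dilution. Increases relative to DMSO baseline scored.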
smiles,measurement,setting,value
CCCCCCCCCCCCOCCOS(=O)(=O)O,outcome,[1],inactive
same,outcome,[2],inactive
same,outcome,[3],inactive
CC(=O)[C@H]1CC[C@H]2[C@@H]3CCC4=CC(=O)CC[C@]4(C)[C@H]3CC[C@]12C,outcome,[2],inactive
same,outcome,[4],inactive
same,outcome,[5],inactive
same,outcome,[6],inactive
same,outcome,[7],inactive
same,AC50,"CD69, CD69 (gene 969)",active: 26.7 µM
same,AC50,[8],active: 5.49 µM
same,outcome,[9],inactive
COC(=O)C1=C(C)NC(C)=C(C(=O)OCCN(C)Cc2ccccc2)C1c1cccc([N+](=O)[O-])c1 (stereo unspecified),AC50,[10],active: 33.5 µM
Cc1ccc(-c2cc(C(F)(F)F)nn2-c2ccc(S(N)(=O)=O)cc2)cc1,AC50,[11],active: 38.9 µM
same,AC50,[12],active: 31.7 µM
same,AC50,[13],active: 35.5 µM
same,AC50,[14],active: 14.1 µM
same,outcome,[15],inactive
CCCCCC/C=C/CCCCCCCC(=O)O,AC50,[1],active: 60.4 µM
same,outcome,[16],inactive
N#Cc1nc(Cl)c(Cl)c(Cl)c1Cl,outcome,[10],inactive
OCc1c[nH]c2ccccc12,outcome,[10],inactive
